Data on 37 cell lines can be found in the supplement of paper PMC4967469.

The IC50 comes from the fitted curve, where viability falls to half of the control; a limit (>, <) means that the fit lies beyond the doses tested. AUC sums up the same curve from the lowest dose to the 256-fold higher top dose: 1 means no effect, lower means more sensitive. Any top dose called inferred is not printed in the source and was worked back from the curve model.

Compound in one assay: CCN(CC)CCCCNc1ncc2cc(-c3cc(OC)cc(OC)c3)c(NC(=O)NC(C)(C)C)nc2n1 [PD-173074]
The assay is described as follows: Viability of human cancer cell lines after 72 h of drug (GDSC screen). The settings on record: top dose 2 µM; top dose inferred. The protocol: (§1)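 Human cancer cell lines in 384-well plates, medium with 10% serum, drug for 72 h over a 256-fold dose range (nine 2-fold or five 4-fold steps up to the top dose). Adherent lines were fixed and stained with the nucleic acid dye Syto60, suspension lines read with resazurin; signal relative to control wells, capped at 0 and 100%. One two-parameter sigmoid per drug and line, fitted in a mixed model over all curves with the slope shared within a line.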

Compound in another assay: CN(C)CCOc1ccc(-c2nc(-c3ccncc3)c(-c3ccc4c(c3)CC/C4=N\O)[nH]2)cc1 [SB590885]
The assay is described as above. The settings on record: top dose 5 µM; top dose inferred. The protocol:
as §1

Broadly, the IC50 is the concentration at which inhibition is half-maximal. As for MFE-280 (endometrium, adherent), the AUC with PD-173074 amounted to 0.957; with SB590885, 0.982. Also, the IC50 with PD-173074 is above 2000 nM; in the assay with SB590885, above 5000 nM.
As for MFE-296 (endometrium, adherent), the AUC with PD-173074 turned out to be 0.837; with SB590885, 0.977. The figures for the IC50 with PD-173074 and with SB590885 were 1490 nM and above 5000 nM, respectively.
Turning to MG-63 (osteosarcoma, adherent), in the assay with PD-173074, the AUC was found to be 0.843 and the IC50 amounted to 1770 nM. In addition, in the assay with SB590885, the AUC worked out at 0.984 and the IC50 was above 5000 nM.
On to “MHH-CALL-2 (B-cell leukaemia, suspension)”, for which, in the assay with PD-173074, the AUC came to 0.99 and the IC50 was above 2000 nM. In the assay with SB590885, the AUC turned out to be 0.995 and the IC50 was above 5000 nM.
Consider MHH-ES-1 (Ewing sarcoma, adherent), for which the AUC is 0.966 in the assay with PD-173074 and 0.951 with SB590885. For the same cell line, the IC50 with PD-173074 is above 2000 nM; with SB590885 it was above 5000 nM.
The matching figures for MIA-PaCa-2 (pancreas, adherent): 0.966, 0.95, above 2000 nM and above 5000 nM.
The matching figures for MKN7 (stomach, adherent): 0.943, 0.956, above 2000 nM and above 5000 nM.
The matching figures for MKN28 (stomach, adherent): 0.986, 0.982, above 2000 nM and above 5000 nM.
As to MM1S (myeloma, suspension), in the assay with PD-173074, the AUC turned out to be 0.94 and the IC50 is above 2000 nM. For the same cell line, in the assay with SB590885, the AUC amounted to 0.988 and the IC50 was above 5000 nM.
In the case of MOG-G-CCM (glioma, adherent), in the assay with PD-173074, the AUC was 0.931 and the IC50 is above 2000 nM. Moreover, in the assay with SB590885, the AUC stood at 0.983 and the IC50 was above 5000 nM.
For MOG-G-UVW (glioma, adherent), in the assay with PD-173074, the AUC was 0.949 and the IC50 is above 2000 nM. In the assay with SB590885, the AUC is 0.964 and the IC50 is above 5000 nM.
With “MOLM-16 (acute myeloid leukaemia, suspension)”, in the assay with PD-173074, the AUC was 0.834 and the IC50 stood at 1090 nM. In the assay with SB590885, the AUC was determined as 0.986 and the IC50 is above 5000 nM.
“MOLT-13 (T-cell lymphoblastic leukaemia, suspension)”: in the assay with PD-173074, the AUC was 0.952 and the IC50 is above 2000 nM. Also, in the assay with SB590885, the AUC stood at 0.99 and the IC50 is above 5000 nM.
In the case of “MOLT-16 (T-cell lymphoblastic leukaemia, suspension)”, in the assay with PD-173074, the AUC is 0.956 and the IC50 was above 2000 nM. For the same cell line, in the assay with SB590885, the AUC was 0.949 and the IC50 was above 5000 nM.
As for MS751 (cervix, adherent), in the assay with PD-173074, the AUC is 0.978 and the IC50 was above 2000 nM. Further, in the assay with SB590885, the AUC worked out at 0.986 and the IC50 is above 5000 nM.
In the same order, the values of NCC010 (kidney, adherent) are 0.986, above 2000 nM, 0.986 and above 5000 nM.
In the case of NCC021 (kidney, adherent), the AUC with PD-173074 was 0.898; in the assay with SB590885 it was 0.981. Besides, the IC50 in the assay with PD-173074 was above 2000 nM; with SB590885, above 5000 nM.
In the same order, the values of NCI-H28 (mesothelioma, adherent) are 0.978, 0.978, above 2000 nM and above 5000 nM.
For “NCI-H146 (small cell lung carcinoma, suspension)”, in the assay with PD-173074, the AUC was 0.976 and the IC50 is above 2000 nM. Further, in the assay with SB590885, the AUC is 0.995 and the IC50 was above 5000 nM.
As for “NCI-H460 (large cell lung carcinoma, adherent)”, in the assay with PD-173074, the AUC amounted to 0.986 and the IC50 was above 2000 nM. In addition, in the assay with SB590885, the AUC came to 0.99 and the IC50 is above 5000 nM.
On to “NCI-H508 (large intestine, semi-adherent)”, for which, in the assay with PD-173074, the AUC came to 0.957 and the concentration for half-maximal inhibition (IC50) is above 2000 nM. In the assay with SB590885, the AUC was 0.969 and the IC50 is above 5000 nM.
In the same order, the values of “NCI-H522 (lung adenocarcinoma, adherent)” are 0.979, above 2000 nM, 0.977 and above 5000 nM.
As to “NCI-H596 (lung adenocarcinoma, adherent)”, in the assay with PD-173074, the AUC was determined as 0.953 and the IC50 is above 2000 nM. Besides, in the assay with SB590885, the AUC stood at 0.979 and the IC50 is above 5000 nM.
With NCI-H630 (large intestine, adherent), in the assay with PD-173074, the AUC was found to be 0.985 and the IC50 is above 2000 nM. Moreover, in the assay with SB590885, the AUC came out at 0.988 and the IC50 was above 5000 nM.
In the case of “NCI-H647 (non-small cell lung carcinoma, adherent)”, in the assay with PD-173074, the AUC was determined as 0.975 and the IC50 is above 2000 nM. In the assay with SB590885, the AUC is 0.964 and the IC50 was above 5000 nM.
On to “NCI-H650 (lung adenocarcinoma, adherent)”, for which the AUC in the assay with PD-173074 was found to be 0.986; in the assay with SB590885, 0.964. In addition, the IC50 was above 2000 nM with PD-173074 and above 5000 nM with SB590885.
In the case of “NCI-H661 (large cell lung carcinoma, adherent)”, in the assay with PD-173074, the AUC came to 0.979 and the IC50 is above 2000 nM. In the assay with SB590885, the AUC came out at 0.979 and the IC50 was above 5000 nM.
Regarding NCI-H727 (lung carcinoid, adherent), in the assay with PD-173074, the AUC came to 0.967 and the IC50 is above 2000 nM. For the same cell line, in the assay with SB590885, the AUC turned out to be 0.858 and the IC50 is above 5000 nM.
With “NCI-H810 (large cell lung carcinoma, adherent)”, in the assay with PD-173074, the AUC worked out at 0.988 and the IC50 was above 2000 nM. In the assay with SB590885, the AUC turned out to be 0.988 and the concentration for half-maximal inhibition (IC50) is above 5000 nM.
On to NCI-H835 (lung carcinoid, suspension), for which, in the assay with PD-173074, the AUC is 0.991 and the IC50 was above 2000 nM. In addition, in the assay with SB590885, the AUC stood at 0.991 and the IC50 was above 5000 nM.
As to “NCI-H838 (lung adenocarcinoma, adherent)”, in the assay with PD-173074, the AUC was 0.948 and the IC50 was above 2000 nM. Also, in the assay with SB590885, the AUC amounted to 0.987 and the IC50 is above 5000 nM.
With “NCI-H841 (small cell lung carcinoma, adherent)”, in the assay with PD-173074, the AUC was determined as 0.988 and the IC50 is above 2000 nM. Further, in the assay with SB590885, the AUC was found to be 0.988 and the IC50 was above 5000 nM.
Regarding NCI-H929 (myeloma, suspension), in the assay with PD-173074, the AUC worked out at 0.946 and the IC50 was above 2000 nM. For the same cell line, in the assay with SB590885, the AUC worked out at 0.927 and the IC50 was above 5000 nM.
The matching figures for “NCI-H1048 (small cell lung carcinoma, adherent)”: 0.953, above 2000 nM, 0.971 and above 5000 nM.
Turning to “NCI-H1105 (small cell lung carcinoma, suspension)”, the AUC with PD-173074 and in the assay with SB590885 was 0.993 in each case. Further, the results for the IC50 with PD-173074 and with SB590885 were above 2000 nM and above 5000 nM, respectively.
As for “NCI-H1341 (small cell lung carcinoma, suspension)”, in the assay with PD-173074, the AUC was 0.981 and the IC50 is above 2000 nM. Besides, in the assay with SB590885, the AUC was 0.992 and the IC50 was above 5000 nM.
As to “NCI-H1435 (lung adenocarcinoma, semi-adherent)”, the results for the AUC in the assay with PD-173074 and in the assay with SB590885 were 0.99 and 0.993, respectively. Further, the IC50 with PD-173074 was above 2000 nM; with SB590885, above 5000 nM.
